# Experimental data reported in the supplement of paper PMC10320760.
# Single values of this set are uncertain.
# B1: Ydj1; a variant is named by its letters at X, in order (parent)
# chain: MVKETKFYDILGVPVTATDVEIKKAYRKCALKYHPDKNPSEEAAEKFKEASAAYEILSDPEKRDIYDQFGEDGLSGAGGAGGFPGGGFGFGDDIFSQFFGAGGAQRPRGPQRGKDIKHEISASLEELYKGRTAKLALNKQILCKECEGRGGKKGAVKKCTSCNGQGIKFVTRQMGPMIQRFQTECDVCHGTGDIIDPKDRCKSCNGKKVENERKILEVHVEPGMKDGQRIVFKGEADQAPDVIPGDVVFIVSERPHKSFKRDGDDLVYEAEIDLLTAIAGGEFALEHVSGDWLKVGIVPGEVIAPGMRKVIEGKGMPIPKYGGYGNLIIKFTIKFPENHFTSEENLKKLEEILPPRIVPAIPKKATVDECVLADFDPAKYNRTRASRGGANYDSDEEEQGGEGVQCXXX
# Variants of: B1
# Test: enrichment factor, frequency at 37 °C / frequency at 25 °C (thermotolerance selection) (ratio); higher = more growth at 37 °C, higher likelihood of farnesylation
# Conditions: with Saccharomyces cerevisiae ydj1Δ (yWS304); selective temperature 37 °C; reference temperature 25 °C
# Protocol: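 Pooled library of all 8,000 Ydj1-CXXX C-terminal motif variants (native CASQ replaced by C + three variable residues, one codon per amino acid) expressed from a CEN plasmid in S. cerevisiae ydj1Δ (yWS304). The library was grown in SC-Ura liquid to A600 ~2 (~8 generations) at permissive 25 °C or selective 37 °C. Reads from 8 and 7 replicates were pooled and variants counted by NGS. Enrichment factor = frequency at 37 °C / frequency at 25 °C, with a +1 correction; it reports Ydj1-dependent thermotolerance, used as a read-out of farnesylation by yeast FTase.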
row,Variant,enrichment factor
1,SAT,1.49
2,TAT,1.87
3,VAT,1.66
4,WAT,1.68
5,YAT,3.14
6,DAT,0.277
7,EAV,1.17
8,FAV,3.17
9,AAV,1.73
10,GAV,1.53
11,HAV,2.19
12,IAV,2.99
13,KAV,1.3
14,LAV,1.78
15,MAV,1.8
16,CAV,0.356
17,NAV,1.28
18,PAV,1.13
19,QAV,1.59
20,RAV,1.31
21,SAV,1.64
22,TAV,1.67
23,VAV,3.41
24,WAV,1.11

row,Variant,enrichment factor
1,YAV,3.9
2,DAV,0.755
3,EAW,1.57
4,FAW,0.872
5,AAW,1.7
6,GAW,1.57
7,HAW,1.4
8,IAW,1.46
9,KAW,1.12
10,LAW,1.73
11,MAW,1.51
12,CAW,0.724
13,NAW,1.45
14,PAW,0.732
15,QAW,1.7
16,RAW,1.06
17,SAW,1.59
18,TAW,1.66
19,VAW,1.25
20,WAW,1.01
21,YAW,1.89
22,DAW,0.499
23,EAY,1.46
24,FAY,2.57

row,Variant,enrichment factor
1,GAY,1.96
2,AAY,2.32
3,HAY,2.23
4,IAY,1.76
5,KAY,1.75
6,LAY,2.27
7,MAY,1.52
8,CAY,2.03
9,NAY,2.19
10,PAY,1.18
11,QAY,1.93
12,RAY,1.09
13,SAY,1.98
14,TAY,2.34
15,VAY,3.23
16,WAY,1.86
17,YAY,3.02
18,DAY,1.02
19,ECA,0.386
20,FCA,2.15
21,GCA,0.579
22,ACA,0.211
23,HCA,1.16
24,ICA,0.637

row,Variant,enrichment factor
1,KCA,0.772
2,LCA,0.572
3,MCA,1.01
4,CCA,0.677
5,NCA,0.869
6,PCA,0.414
7,QCA,0.463
8,RCA,0.579
9,SCA,0.695
10,TCA,0.737
11,VCA,0.812
12,WCA,0.579
13,YCA,1.45
14,DCA,0.643
15,ECC,0.439
16,FCC,0.993
17,GCC,0.204
18,ACC,0.184
19,HCC,0.153
20,ICC,0.463
21,KCC,0.169
22,LCC,1.45
23,MCC,1.16
24,CCC,0.65

row,Variant,enrichment factor
1,NCC,0.298
2,PCC,0.145
3,QCC,0.235
4,RCC,0.241
5,SCC,0.341
6,TCC,0.386
7,VCC,0.877
8,WCC,1.74
9,YCC,1.16
10,DCC,0.0618
11,ECD,0.543
12,FCD,0.991
13,GCD,0.319
14,ACD,2.06
15,HCD,1.41
16,ICD,1.36
17,KCD,2.6
18,LCD,1.46
19,MCD,1.38
20,CCD,2.21
21,NCD,0.805
22,PCD,1.5
23,QCD,1.41
24,RCD,2.59

row,Variant,enrichment factor
1,SCD,1.5
2,TCD,2.01
3,VCD,2.29
4,WCD,0.549
5,YCD,1.07
6,DCD,0.169
7,ECE,1.02
8,FCE,0.576
9,GCE,0.479
10,HCE,2.23
11,ACE,2.02
12,ICE,1.04
13,KCE,1.72
14,LCE,1.53
15,MCE,1.59
16,CCE,2.41
17,NCE,0.867
18,PCE,1.83
19,QCE,1.7
20,RCE,1.88
21,SCE,1.88
22,TCE,1.95
23,VCE,2.04
24,WCE,2.69

row,Variant,enrichment factor
1,YCE,1.69
2,DCE,0.202
3,ECF,0.545
4,FCF,0.579
5,GCF,1.54
6,HCF,0.515
7,ACF,0.356
8,ICF,0.405
9,KCF,0.632
10,LCF,0.695
11,MCF,0.772
12,CCF,2.32
13,NCF,0.957
14,PCF,0.529
15,QCF,0.568
16,RCF,0.366
17,SCF,0.772
18,VCF,1.28
19,WCF,1.54
20,YCF,0.927
21,DCF,0.161
22,ECG,1.6
23,FCG,1.62
